# Test results as given in paper PMC4336329 (PLoS ONE, 2015).
# Out of some 310,000 compounds screened, about 2,200 (0.71%) showed an effect of 50% or more. Effects have a minus sign here. The list shows a part of the results.
# Biological target: human ether-à-go-go-related gene (hERG) potassium channel (human, UniProt Q12809)
# Assay: primary screen, population patch clamp on CHO cells stably expressing hERG
# Chain of human ether-à-go-go-related gene (hERG) potassium channel (Q12809 whole entry, looked up): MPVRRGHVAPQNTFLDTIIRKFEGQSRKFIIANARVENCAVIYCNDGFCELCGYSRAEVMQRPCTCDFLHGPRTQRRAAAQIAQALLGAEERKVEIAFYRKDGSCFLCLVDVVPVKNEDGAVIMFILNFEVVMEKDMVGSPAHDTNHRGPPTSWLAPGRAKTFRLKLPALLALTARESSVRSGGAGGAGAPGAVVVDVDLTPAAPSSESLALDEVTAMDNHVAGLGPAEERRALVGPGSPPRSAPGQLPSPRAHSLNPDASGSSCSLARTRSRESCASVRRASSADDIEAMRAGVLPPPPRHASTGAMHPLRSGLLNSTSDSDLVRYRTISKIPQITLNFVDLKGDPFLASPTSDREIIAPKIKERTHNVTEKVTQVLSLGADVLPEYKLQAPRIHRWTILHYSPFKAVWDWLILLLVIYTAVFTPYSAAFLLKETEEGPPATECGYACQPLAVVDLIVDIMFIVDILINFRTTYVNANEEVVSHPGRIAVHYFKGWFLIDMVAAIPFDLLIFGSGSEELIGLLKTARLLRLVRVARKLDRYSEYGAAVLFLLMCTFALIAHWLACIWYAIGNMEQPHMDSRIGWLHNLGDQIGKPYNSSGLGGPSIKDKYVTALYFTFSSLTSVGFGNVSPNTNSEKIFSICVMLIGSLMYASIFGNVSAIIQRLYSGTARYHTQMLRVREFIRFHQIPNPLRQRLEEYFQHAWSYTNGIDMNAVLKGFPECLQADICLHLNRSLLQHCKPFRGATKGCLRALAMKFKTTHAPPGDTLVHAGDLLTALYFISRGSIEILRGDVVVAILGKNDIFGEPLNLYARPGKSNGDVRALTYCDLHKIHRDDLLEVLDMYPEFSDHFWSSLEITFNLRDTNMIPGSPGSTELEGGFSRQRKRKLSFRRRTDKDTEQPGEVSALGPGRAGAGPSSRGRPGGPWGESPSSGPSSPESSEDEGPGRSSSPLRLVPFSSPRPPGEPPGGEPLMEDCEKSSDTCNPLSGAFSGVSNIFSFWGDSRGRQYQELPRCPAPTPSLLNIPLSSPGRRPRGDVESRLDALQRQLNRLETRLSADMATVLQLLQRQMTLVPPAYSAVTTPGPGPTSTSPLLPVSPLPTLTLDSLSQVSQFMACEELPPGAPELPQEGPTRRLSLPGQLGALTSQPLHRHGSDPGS
row,SMILES,"hERG current change (%, negative = inhibition) at 1uM [%]"
1,COc1ccccc1NC(=O)NCCc1ccccc1,15.2
2,Cc1ccc(C(=O)N/N=C/c2cccc(OC(=O)/C=C/c3ccco3)c2)cn1,20.1
3,Cc1ccccc1OCc1nc2c3c(ncn2n1)-c1ccccc1CC31CCCC1,12.6
4,Cc1cc(C)nc(NC(=O)C(C)C)n1,14
5,O=C(COC(=O)c1cc2ccccc2oc1=O)c1cccc([N+](=O)[O-])c1,1.78
6,O=C(Nc1ccc(S(=O)(=O)N2CCOCC2)cc1)C1CC1,11.2
7,CC(O)(CS(=O)(=O)c1ccccc1)C(=O)Nc1ccc(C(F)(F)F)cc1 (stereo not drawn),-5.57
8,CS(=O)(=O)Nc1cccc(C(=O)CC2(O)C(=O)Nc3ccccc32)c1 (stereo not drawn),10.6
9,COC(=O)c1ccc(NC(=O)C2CCCN2S(=O)(=O)c2ccc(F)cc2)cc1 (stereo not drawn),6.32
10,CCN(Cc1cnn(C)c1)C(=O)c1ccc2nc(Cc3cccc(Cl)c3)oc2c1,15.3
11,CSc1ccccc1NC(=O)c1ccccc1N(Cc1ccccc1)S(C)(=O)=O,14.4
12,O=C(NCC(=O)N(c1ccccc1)C(C(=O)NCC1CCCO1)c1ccccc1)c1cccs1 (stereo not drawn),5.4
13,COc1ccnc(N2CCN(c3cccc(C(F)(F)F)c3)CC2)c1C#N,30.1
14,COc1ccc(OC)c(S(=O)(=O)Nc2ccc(OCC(=O)O)cc2)c1,18.5
15,CCC(=O)/C=C1/Sc2ccc(OC)cc2N1CC,5.9
16,CN(C(=O)c1ccccc1C(=O)OCC(=O)Nc1ccc(OC(F)F)cc1)c1ccccc1,-7.78
17,CCOC(=O)c1nc2ccccc2c(C)c1C.Cl,6.1
18,Cc1ccccc1-n1nnnc1SCC(=O)NNC(=O)c1ccc(NC(=O)CC#N)cc1,11
19,CCOc1ccc(CCNC(=O)C2CCC(=O)N2C2CCCCC2)cc1OCC (stereo not drawn),5.45
20,CCC(C)NC(=O)CN1C(=O)COc2ccc(S(=O)(=O)N3CCOCC3)cc21 (stereo not drawn),14.4
21,O=C(CN1CCN(C(C(=O)Nc2ccc(Cl)cc2C(F)(F)F)c2ccccc2)CC1)NC1CC1 (stereo not drawn),-50.1
22,CCCCN(C)C(=O)c1nc2ccccn2c1CN1CCC[C@H]1C(=O)OC,2.36
23,COc1cccc(NC(=O)c2cccc(C(=O)Nc3cccc(OC)c3)c2)c1,14.9
24,COc1ccc(C(Nc2cccc([N+](=O)[O-])c2)P(=O)(OC(C)C)OC(C)C)cc1 (stereo not drawn),5.44
